Experimental findings from the supplement of paper PMC9446081 are described below.

About 220 (0.56%) of roughly 39,000 compounds showed activity. The list shows a part of the results.
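Also: static incubation at 37 °C against the wild-type strain, values averaged over two biological replicates.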

The test system of the assay is Escherichia coli K-12 BW25113. As to the kind of experiment: relative growth (OD600 normalised to plate interquartile mean) (fraction); higher = less growth inhibition, active = 0.2 or less. The note with it: 50 µM; LB; incubation time: overnight (16-24 h).
Take `C[C@H]1CN([C@@H](C)CO)C(=O)c2cccc(NC(=O)c3cnccn3)c2O[C@@H]1CN(C)S(C)(=O)=O`: the relative growth is inactive: 0.932.

On to `Cc1ccc(S(=O)(=O)Nc2ccc3c(c2)C(=O)N([C@H](C)CO)C[C@H](C)[C@@H](CN(C)C(=O)Nc2ccc(F)cc2)OCCCC[C@@H](C)O3)cc1`, for which the relative growth is inactive: 1.02.

With `CC12C=CC(=O)C=C1CCC1C3CC(O)C(O)(C(=O)CO)C3(C)CC(O)C12F` (stereo unspecified), the relative growth is inactive: 1.04.

For the compound `C[C@@H]1CCCCO[C@H](CN(C)CC2CCCCC2)[C@H](C)CN([C@@H](C)CO)C(=O)c2cc(NC(=O)Nc3ccc4c(c3)OCO4)ccc2O1`, the relative growth was inactive: 0.961.

As to `COc1ccc(C(=O)c2ccccc2O)c(O)c1`, the relative growth was inactive: 0.932.

For the compound `C[C@H](CO)N1C[C@H](C)[C@@H](CN(C)Cc2ccc(-c3ccccc3)cc2)Oc2c(NC(=O)Nc3ccc(C(F)(F)F)cc3)cccc2C1=O`, the relative growth is inactive: 0.986.

With `C[C@@H]1CN([C@@H](C)CO)C(=O)c2cc(NS(C)(=O)=O)ccc2O[C@@H](C)CCCCO[C@@H]1CN(C)S(=O)(=O)c1ccc(F)cc1`, the relative growth is inactive: 1.01.

`C[C@H](CO)N1C[C@H](C)[C@@H](CN(C)Cc2ccc(Cl)c(Cl)c2)Oc2c(NC(=O)c3nc4ccccc4s3)cccc2C1=O`: the relative growth was inactive: 1.03.

For `COCC(=O)N1C[C@@H]2OCCN(CCN3CCCC3)[C@H]2C1`, the relative growth is inactive: 0.982.

With `C[C@@H]1CCCCO[C@@H](CN(C)Cc2ccncc2)[C@H](C)CN([C@H](C)CO)C(=O)c2cc(NC(=O)c3ccccc3)ccc2O1`, the relative growth was inactive: 1.01.

As for `COc1ccc(C#Cc2ccc3c(c2)[C@@]2(C(=O)N3C(=O)N[C@@H](C)c3ccccc3)[C@H](c3ccc(OCCO)cc3)N3[C@H](c4ccccc4)[C@H](c4ccccc4)OC(=O)[C@H]3[C@@H]2C(=O)O)cc1`, the relative growth is inactive: 1.01.

In the case of `C[C@H]1CN([C@@H](C)CO)C(=O)CCCn2nncc2CO[C@H]1CN(C)S(=O)(=O)c1ccc2c(c1)OCCCO2`, the relative growth was inactive: 0.999.

With `OC[C@H]1O[C@H](OC[C@H]2O[C@@H](O)[C@H](O)[C@@H](O)[C@@H]2O)[C@H](O)[C@@H](O)[C@@H]1O`, the relative growth was inactive: 1.04.

In the case of `Cc1noc(C)c1NC(=O)Nc1cccc2c1O[C@H](CN(C)Cc1ccc(C(=O)Nc3ccccc3N)cc1)[C@@H](C)CN([C@@H](C)CO)C2=O`, the relative growth was inactive: 0.969.

As for `CO[C@@H]1[C@H](O[P@@](=O)(S)OC[C@H]2O[C@@H](n3cnc4c(N)ncnc43)C[C@@H]2O)[C@@H](CO)O[C@H]1n1ccc(=O)[nH]c1=O`, the relative growth was inactive: 0.98.

For `CC1=CC2C(CC1=O)C2(C)C` (stereo unspecified), the relative growth is inactive: 0.852.
